Data: the supplement of paper PMC8728848
The list shows a part of the results.

Experiments:
Test in all cases: glycan array binding signal (z-score within array); higher = stronger binding
Conditions in all cases: glycan notation: IUPAC condensed, linker removed
[1] = biological target: GlcNAc(b1-3)GalNAc
Method in brief: (§1)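 From the Consortium for Functional Glycomics database, 3228 arrays were curated, keeping only those whose protein sequence was available. Binding is given as a within-array Z-score averaged across arrays sharing a protein sequence and across linkers. Negative Z-scores can be read as non-binding.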

[2] = biological target: GlcNAc(b1-3)Man
Method in brief: as §1

[3] = biological target: GlcNAc(b1-3)[GlcNAc(b1-4)][GlcNAc(b1-6)]GlcNAc
Method in brief: as §1

[4] = biological target: GlcNAc(b1-3)[GlcNAc(b1-6)]Gal(b1-4)GlcNAc
Method in brief: as §1

[5] = biological target: GlcNAc(b1-3)[GlcNAc(b1-6)]GalNAc
Method in brief: as §1

[6] = biological target: GlcNAc(b1-4)Gal(b1-4)GlcNAc
Method in brief: as §1

[7] = biological target: GlcNAc(b1-4)GlcNAc
Method in brief: as §1

[8] = biological target: GlcNAc(b1-4)GlcNAc(b1-4)GlcNAc
Method in brief: as §1

[9] = biological target: GlcNAc(b1-4)GlcNAc(b1-4)GlcNAc(b1-4)GlcNAc(b1-4)GlcNAc
Method in brief: as §1

[10] = biological target: GlcNAc(b1-4)GlcNAc(b1-4)GlcNAc(b1-4)GlcNAc(b1-4)GlcNAc(b1-4)GlcNAc
Method in brief: as §1

[11] = biological target: GlcNAc(b1-4)[GlcNAc(b1-6)]GalNAc
Method in brief: as §1

[12] = biological target: GlcNAc(b1-6)Gal(b1-4)GlcNAc
Method in brief: as §1

[13] = biological target: GlcNAc(b1-6)GalNAc
Method in brief: as §1

[14] = biological target: GlcNAc6S(b1-3)Gal(b1-4)GlcNAc
Method in brief: as §1

[15] = biological target: Kdn(a2-3)Gal(b1-3)GalNAc
Method in brief: as §1

[16] = biological target: Kdn(a2-3)Gal(b1-3)GlcNAc
Method in brief: as §1

[17] = biological target: Kdn(a2-3)Gal(b1-4)Glc
Method in brief: as §1

[18] = biological target: Kdn(a2-3)Gal(b1-4)GlcNAc
Method in brief: as §1

[19] = biological target: Kdn(a2-3)Gal(b1-4)[Fuc(a1-3)]GlcNAc
Method in brief: as §1

[20] = biological target: Kdn(a2-6)Gal(b1-4)GlcNAc
Method in brief: as §1

[21] = biological target: Man(a1-2)Man(a1-2)Man(a1-3)Man
Method in brief: as §1

[22] = biological target: Man(a1-2)Man(a1-2)Man(a1-6)[Man(a1-3)]Man
Method in brief: as §1

[23] = biological target: Man(a1-2)Man(a1-3)Man
Method in brief: as §1

B1: HBHA-Rv (Mycobacterium tuberculosum), P0A5P6 (protein)
chain: MAENSNIDDIKAPLLAALGAADLALATVNELITNLRERAEETRTDTRSRVEESRARLTKLQEDLPEQLTELREKFTAEELRKAAEGYLEAATSRYNELVERGEAALERLRSQQSFEEVSARAEGYVDQAVELTQEALGTVASQTRAVGERAAKLVGIELPKKAAPAKKAAPAKKAAPAKKAAAKKAPAKKAAAKKVTQK
- glycan array binding signal (z-score) [1]: -0.128
- glycan array binding signal (z-score) [2]: -0.144
- glycan array binding signal (z-score) [3]: 0.099
- glycan array binding signal (z-score) [4]: -0.201
- glycan array binding signal (z-score) [5]: -0.052
- glycan array binding signal (z-score) [6]: 0.604
- glycan array binding signal (z-score) [7]: -0.292
- glycan array binding signal (z-score) [8]: -0.252
- glycan array binding signal (z-score) [9]: 4.22
- glycan array binding signal (z-score) [10]: 3.44
- glycan array binding signal (z-score) [11]: 0.481
- glycan array binding signal (z-score) [12]: -0.139
- glycan array binding signal (z-score) [13]: 0.067
- glycan array binding signal (z-score) [14]: -0.165
- glycan array binding signal (z-score) [15]: -0.31
- glycan array binding signal (z-score) [16]: -0.129
- glycan array binding signal (z-score) [17]: -0.38
- glycan array binding signal (z-score) [18]: -0.312
- glycan array binding signal (z-score) [19]: -0.371
- glycan array binding signal (z-score) [20]: -0.255
- glycan array binding signal (z-score) [21]: -0.209
- glycan array binding signal (z-score) [22]: -0.15
- glycan array binding signal (z-score) [23]: 0.325
